# Measurements published in article PMC4336329 (PLoS ONE, 2015).
# Among all 310,000 compounds or so, about 14,000 (4.5%) showed an effect of 50% or more. Effects have a minus sign here. The list shows a part of the results.
# Biological target: human ether-à-go-go-related gene (hERG) potassium channel (human, UniProt Q12809)
# Test: primary screen, population patch clamp on CHO cells stably expressing hERG
# 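Also: peak tail current of the secondary pulse compared with the same well before compound.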
# human ether-à-go-go-related gene (hERG) potassium channel, sequence (Q12809 whole entry, looked up): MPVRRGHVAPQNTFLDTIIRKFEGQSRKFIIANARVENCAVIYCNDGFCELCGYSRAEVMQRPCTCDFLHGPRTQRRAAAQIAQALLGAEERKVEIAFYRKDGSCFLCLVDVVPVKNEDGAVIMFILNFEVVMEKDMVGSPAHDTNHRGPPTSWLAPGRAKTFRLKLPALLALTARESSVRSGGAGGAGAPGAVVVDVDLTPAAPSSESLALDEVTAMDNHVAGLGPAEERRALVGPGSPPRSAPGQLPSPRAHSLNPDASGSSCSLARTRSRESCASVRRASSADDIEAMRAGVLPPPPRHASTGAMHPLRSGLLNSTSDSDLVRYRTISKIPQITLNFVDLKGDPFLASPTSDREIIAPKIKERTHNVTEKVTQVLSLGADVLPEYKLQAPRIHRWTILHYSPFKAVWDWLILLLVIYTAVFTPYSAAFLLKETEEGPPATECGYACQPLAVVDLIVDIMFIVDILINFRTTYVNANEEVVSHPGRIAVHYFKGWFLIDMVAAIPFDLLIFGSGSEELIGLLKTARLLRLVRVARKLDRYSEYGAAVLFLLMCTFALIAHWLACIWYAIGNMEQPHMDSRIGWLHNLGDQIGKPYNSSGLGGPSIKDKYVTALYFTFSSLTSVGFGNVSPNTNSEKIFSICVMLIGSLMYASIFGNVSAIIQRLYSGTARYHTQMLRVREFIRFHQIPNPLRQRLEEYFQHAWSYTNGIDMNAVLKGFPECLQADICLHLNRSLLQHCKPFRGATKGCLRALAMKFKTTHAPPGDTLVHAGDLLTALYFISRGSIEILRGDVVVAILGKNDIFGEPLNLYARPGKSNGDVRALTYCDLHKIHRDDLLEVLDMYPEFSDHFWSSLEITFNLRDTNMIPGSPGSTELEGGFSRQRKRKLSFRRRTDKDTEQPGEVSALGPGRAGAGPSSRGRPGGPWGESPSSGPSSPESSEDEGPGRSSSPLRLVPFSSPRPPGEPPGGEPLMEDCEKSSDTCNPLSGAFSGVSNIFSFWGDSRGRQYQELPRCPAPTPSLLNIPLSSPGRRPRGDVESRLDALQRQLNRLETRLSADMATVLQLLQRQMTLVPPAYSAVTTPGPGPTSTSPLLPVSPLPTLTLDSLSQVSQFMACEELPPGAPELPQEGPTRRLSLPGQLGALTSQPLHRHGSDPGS
row,SMILES,"hERG current change (%, negative = inhibition) at 10uM [%]"
1,CCCC(=O)C1=C(O)C(C(=O)OC)C(C)(C)CC1=Nc1ccncc1 (stereo not shown),-12.6
2,C=CC[n+]1cccc(-c2cc3ccc(C)cc3[nH]2)c1.[Br-],-16.2
3,CC(=O)Nc1ccc(/C=C/c2ccc3c([N+](=O)[O-])cccc3n2)cc1,6.68
4,O=C(CC1C(=O)N(Cc2ccccc2)C(=S)N1CCN1CCOCC1)Nc1ccc(F)cc1 (stereo not shown),-5.1
5,O=C(NCc1ccccc1)C1CCCN1S(=O)(=O)c1cccc2cccnc12 (stereo not shown),-11
6,COc1ccc(-c2nc3oc4cc(OC)ccc4c(=O)c3c(=O)n2Cc2ccco2)cc1,-27.5
7,COc1ccc(NC(=O)Nc2ccc(C(=O)N3CCOCC3)cc2)c(OC)c1,2.56
8,O=C(c1cc(-c2cccs2)nc2ccccc12)N1CCN(c2ccccc2O)CC1,25.8
9,CCn1c(NN)nc2sc3c(c2c1=O)CCC3,17.5
10,CCOC(=O)CSc1nc(COc2ccccc2)nc2ccccc12,2.22
11,Cc1noc(C)c1S(=O)(=O)N1CCCC1C(=O)NC(C)(C)C (stereo not shown),15.3
12,CC1=C(C(=O)NC2CCCC(C)C2C)C2(CCCCC2)OC1=O (stereo not shown),-1.75
13,COc1ccccc1-c1sc2ccccc2c1-c1ccccc1OC,14.4
14,CCCCCC(=O)N/N=C(\C)c1ccc(N2CCCCC2)cc1,7.01
15,Cc1cccc(C(=O)n2c(=S)nc3ccccn32)c1,4.13
16,O=c1oc2ccc(Cl)cc2cc1-c1ccccc1,22.4
17,O=C(COC(=O)c1ccccc1NS(=O)(=O)c1ccc(Cl)cc1)NCc1ccccc1,6.15
18,CCOC(=O)N1CCC(NC(=O)C2CCN(S(=O)(=O)c3ccc4c(c3)oc(=O)n4C)CC2)CC1,9.17
19,COc1ccc(CCNC(=O)C(=O)NCc2ccc(C)cc2)cc1OC,-1.57
20,Nc1nnn(CC(=O)N/N=C/C=C/c2ccccc2)n1,10

row,SMILES,"hERG current change (%, negative = inhibition) at 10uM [%]"
1,NS(=O)(=O)OCCCc1ccccc1,8.49
2,CC(C)C(=O)N1CCC2(CC1)Oc1ccc(F)cc1C(=O)C21CC(c2ccc(Cl)cc2)=NO1 (stereo not shown),-31.2
3,CN(C)c1ccc(Nc2ccc([N+](=O)[O-])cn2)cc1,21.5
4,Cc1ccc(C(=O)c2c3ccccc3[n+]([O-])n2CCC(N)=O)cc1,-5.98
5,O=C(NCCc1ccco1)c1nn(Cc2ccccc2)c(=O)c2ccccc12,10.3
6,O=C(Nc1ccccc1)Nc1ccno1,25.4
7,CCCN(CCC)CCCNC(=O)c1cn(C)c2ccc(S(=O)(=O)N(C)C3CCCCC3)cc2c1=O,-73.7
8,O=C(Nc1ccc(C(=O)N2CCOCC2)cc1)Nc1cccc(Cl)c1,-10.1
9,C1CCc2nnc(C3CC3)n2CC1,21
10,COc1ccc(CCNC(=O)CNCC(c2ccccc2)N(C)C)cc1OC.O=C(O)C(=O)O (stereo not shown),19.9
11,Cc1ccc(OCC(O)CNC(=O)c2ccccc2C(=O)O)cc1 (stereo not shown),2.66
12,CCc1cccc(C)c1NC(=O)c1ccc(CN2CCc3ccccc3C2)cc1,-0.345
13,O=C(CNC(=O)Cc1ccccc1)NCC(=O)OCC(=O)c1ccc(Cl)cc1,12.7
14,CCCCNC(=O)NS(=O)(=O)c1ccc(NC(=O)CCC(=O)c2cccs2)cc1,23.1
15,CC1CN(C(=O)CCC(=O)NCCc2ccccc2)c2ccccc2O1 (stereo not shown),-9.06
16,O=C(O)c1ccc(-n2nnc3ccccc32)c([N+](=O)[O-])c1,13.7
17,CCOC(=O)c1cc2sccc2n1CC(=O)OC,4.34
18,CC(=O)c1cccc(NC(=O)CCNC(=O)c2ccccc2Cl)c1,11.4
19,Cn1c(C(=O)NCC2CCCO2)cc2oc3ccccc3c21 (stereo not shown),-5.26
20,Cc1cc(C)c(OCCn2ccnc2)c(C)c1,15.4

row,SMILES,"hERG current change (%, negative = inhibition) at 10uM [%]"
1,N/C(=N\OC(=O)c1cccc(F)c1)c1ccccc1,11.1
2,Cc1cc(Nc2ccc3c(c2)OCCO3)n2nc(C)nc2n1,-9.32
3,CC(C)Oc1ccc(N2CC(C(=O)Nc3ccccc3F)CC2=O)cc1 (stereo not shown),-17.2
4,CCOC(=O)c1ccc(COC(=O)c2cc3ccccc3oc2=O)o1,-48.6
5,CCOC(=O)N1CCN(c2c(Nc3ccc4c(c3)OCCO4)c(=O)c2=O)CC1,6.3
6,Cc1cccc(C)c1OCCOC(=O)c1cccc(S(=O)(=O)N2CCOCC2)c1,-9.01
7,O=C(O)CN1C(=O)COc2cc(S(=O)(=O)N3CCCC3)ccc21,10.2
8,Cl.Nc1ccc2nc(CCCO)[nH]c2c1,17
9,O=C(c1cnccn1)N1CCc2ccccc21,23.9
10,COCCN1C(=O)C(=O)/C(=C(/O)c2cccc(OC)c2)C1c1ccc(C)o1 (stereo not shown),-14.5
11,CC(=O)Nc1ccc(C(=O)CSc2cc(C)c3cccc(C)c3n2)cc1,14
12,Cc1ccc2c(CC(=O)OCc3csc(C)n3)coc2c1,2.73
13,NS(=O)(=O)c1ccc(CCNC(=O)CSc2nc3ccsc3c(=O)n2CC2CCC(C(=O)O)CC2)cc1 (stereo not shown),26.9
14,O=C(O)c1cc(S(=O)(=O)NC(Cc2c[nH]c3ccccc23)C(=O)O)ccc1Cl (stereo not shown),11.7
15,COC(=O)C1[C@H]2C(=O)N(Cc3cccs3)C[C@]23C=C[C@H]1O3 (stereo partly shown),-29.4
16,Cc1ccnc(SCC(=O)O)n1,5.35
17,Nc1oc2ccccc2c(=O)c1C=O,8.89
18,Cc1ccc(O)c(Nc2ncnc3ccccc23)c1.Cl,11.8
